Measurements as given in patent USRE44681E1, “Compositions and methods for inhibiting growth of SMAD4-deficient cancers” (Biogen Idec MA Inc., priority 2006, dated 2013).

Tests used:
[1] = system: ASPC-1 human pancreatic adenocarcinoma cells; test: Orthotopic model of pancreatic cancer with ASPC-1 cells in athymic nude mice; assay type: in vivo; details: orthotopic ASPC-1 model
[2] = system: BxPC-3 human pancreatic adenocarcinoma; test: Subcutaneously implanted BxPC-3 in athymic nude mice, single agent or combination chemotherapy (Example 4); assay type: in vivo; details: data obtained earlier with this xenograft model (not shown)

In the case of `Nc1ccn([C@@H]2O[C@H](CO)[C@@H](O)C2(F)F)c(=O)n1` [gemcitabine], the tumor volume [1] is reported as “did not have a significant effect” and the “sensitivity of the BxPC-3 xenograft to the drug” value [2] is reported as “resistant”.
